The source of these data is ChEMBL document CHEMBL4888484, “Replenishing the malaria drug discovery pipeline: Screening and hit evaluation of the MMV Hit Generation Library 1 (HGL1) against asexual blood stage Plasmodium falciparum ,using a nano luciferase reporter read-out” (2022).

The campaign covered roughly 150,000 compounds. About 540 (0.36%) showed an effect of 50% or more. The list shows a part of the results.

The subject of the test is Plasmodium falciparum. Kind of test: Primary screen in NF54 nanoGlo assay, in single point, at 2uM, 72h; a lower Z score goes with more inhibition. Type of test: functional, Erythrocyte. Particulars: timepoint 72 hour.
Take `Cc1cc(C)n(-c2cc(N3CC(C(=O)Nc4onc5c4CCCC5)C3)ncn2)n1`: the “% Inhibition” value is 14% and the Z score was -1.85.
Regarding `COc1cc(CNc2ccc(-c3cnc(C4CC4)o3)cc2)ccc1O`, the “% Inhibition” value amounted to 6% and the Z score is listed as -0.59.
On to `COc1cccc(CN(CCS(=O)(=O)N2CCNCC2)S(=O)(=O)c2cccs2)c1`, for which the “% Inhibition” value is on record as -12% and the Z score was determined as 1.38.
Take `O=S(=O)(CC1CCCC1)NCc1nnc2n1CCCC2`: the “% Inhibition” value came to 0% and the Z score is -0.02.
Taken in the same sequence, the figures for `Cc1ccc(OC[C@H]2c3ccsc3CCN2C(=O)CN(CC(C)C)S(=O)(=O)c2ccc(C)cc2)cc1` were -11% and 1.48.
As to `COc1ccc(CCNC(=O)Nc2c(-c3ccc(OC)cc3)nn(-c3ccc(C(F)(F)F)cc3)c2N)cc1`, the “% Inhibition” value was -4% and the Z score was found to be 0.59.
Taken in the same sequence, the figures for `O=S(=O)(CC1CCCC1)NCC[C@H]1CCCOC1` were -9% and 1.54.
As for `O=C(COc1ccc(F)cc1)N1CC(n2nccn2)C1`, the “% Inhibition” value worked out at 5% and the Z score is -0.67.
Take `Cc1oncc1C(=O)N1C2C=CCC1CC2` (stereo unspecified): the “% Inhibition” value is listed as -4% and the Z score was found to be 0.51.
Consider `CC1CN(C(=O)Cc2csc(C(C)C)n2)C(C)CO1` (stereo unspecified), for which the “% Inhibition” value was determined as 4% and the Z score is reported as -0.6.
With `CCOc1cccc2[nH]cc(CCNC(=O)N3CCC[C@H](OC)C3)c12`, the “% Inhibition” value is recorded as 10% and the Z score was -1.3.
Turning to `COc1ccccc1CCNC(=O)c1ccc2c(c1)OCCO2`, the “% Inhibition” value was -14% and the Z score turned out to be 2.04.
As for `CCN(CC)c1onc(-c2ccccc2)c1CN(Cc1ccccc1)C(C)=O`, the “% Inhibition” value is given as 2% and the Z score was -0.36.
In the case of `CCNC(=O)O[C@@H]1CO[C@H]2[C@@H]1OC[C@@H]2Nc1nccc(-c2ccc(N(C)C)cc2)n1`, the “% Inhibition” value is recorded as -5% and the Z score is reported as 0.75.
Take `CC(C)n1cnnc1C[C@H]1CCN(S(=O)(=O)Cc2ccccc2F)C1`: the “% Inhibition” value is on record as 0% and the Z score was 0.07.
In the case of `Cc1cccc(-c2cc3n(n2)CCCN(C(=O)[C@H](C)Oc2ccccc2)C3)c1`, the “% Inhibition” value was -4% and the Z score is given as 0.72.
With `COc1ccccc1N1CCN(c2nc(Nc3ccc(C)cc3C)c3nccnc3n2)CC1`, the “% Inhibition” value was -9% and the Z score was 1.59.
Taken in the same sequence, the figures for `CC1COC(c2ccccc2)C(C)N1C(=O)CCc1cnn(C)c1` (stereo unspecified) were -11% and 1.03.
As to `Cc1noc(-c2cccnc2NCc2ccnc(OC(C)C)c2)n1`, the “% Inhibition” value was -17% and the Z score worked out at 1.9.
Turning to `O=C(c1cc(-c2ccccc2)n[nH]1)N1CCC(Oc2ccccn2)CC1`, the “% Inhibition” value is -7% and the Z score turned out to be 1.34.
Consider `C[C@@H](c1ncc(C(C)(C)C)o1)n1ccc(C(F)(F)F)n1`, for which the “% Inhibition” value was -2% and the Z score stood at 0.46.
`Cc1cc(NC(=O)CCN2CCCN(C)CC2)no1`: the “% Inhibition” value is listed as -3% and the Z score was 0.38.
Regarding `CN(Cc1ccccc1)c1ncccc1CNc1cc(C(N)=O)ccn1`, the “% Inhibition” value is 1% and the Z score is listed as -0.08.
For the compound `COCCn1cc(NC(=O)C(F)=CC2CCCCC2)cn1`, the “% Inhibition” value was -34% and the Z score is 5.1.
Take `Cc1cccc(OC(=O)c2cc(-c3ccc(C)c(C)c3)on2)c1`: the “% Inhibition” value came out at 25% and the Z score is listed as -2.87.
In the case of `Cc1nc(C(=O)NC[C@]2(O)CCCC2(C)C)co1`, the “% Inhibition” value was -1% and the Z score came out at 0.09.
With `CN1CCCC[C@H]1C(=O)NCc1csc(-c2ccn(C)n2)n1`, the “% Inhibition” value worked out at 3% and the Z score was -0.35.
In the case of `CC1(C)C[C@@H](c2nccn2CCCc2nnn[nH]2)CCO1`, the “% Inhibition” value is on record as 8% and the Z score was -1.06.
Turning to `COC(=O)CCN(C(=O)c1cccc(C)c1)c1nc2ccccc2o1`, the “% Inhibition” value is recorded as -16% and the Z score worked out at 1.47.
Regarding `Cc1cccc(-c2noc(CCN(CC(C)C)C(=O)COCc3ccccc3)n2)c1`, the “% Inhibition” value is recorded as -13% and the Z score came to 1.51.
Take `Cc1ccc(C)c([C@H](C)NC(=O)CN2CCCN(c3ccnc(C)c3)CC2)c1`: the “% Inhibition” value is given as -12% and the Z score amounted to 2.13.
Take `O=C1CN(C(=O)Cn2cnc3ccc(Cl)cc3c2=O)c2ccccc2N1`: the “% Inhibition” value is on record as -15% and the Z score came out at 2.38.
Taken in the same sequence, the figures for `CC(C)NC(=O)[C@@]1(OCc2ccccc2)CC(OCc2ccc(F)cc2F)[C@H](O)[C@H](O)C1` (stereo partly specified) were 2% and -0.37.
Consider `Cc1ncsc1-c1ccc(CNC(=O)c2[nH]c(=O)[nH]c2C)cc1`, for which the “% Inhibition” value is recorded as -13% and the Z score is recorded as 2.01.
As to `Cc1nc(-c2ccccc2)c(C(=O)N(C)Cc2snnc2C)s1`, the “% Inhibition” value is on record as -10% and the Z score is 1.44.
As for `COc1cccc(NC(=O)Nc2ccc(-c3cc4ccccc4[nH]3)cc2)c1`, the “% Inhibition” value is -6% and the Z score was determined as 0.98.
Turning to `Nc1nc(CCCNc2nc(-c3ccccc3)no2)cs1`, the “% Inhibition” value is -9% and the Z score was determined as 1.2.
The corresponding values for `Cc1cc(C)c2c(c1)-c1c(ssc1=S)C(C)(C)N2C(=O)CN1CCOCC1` are -1% and 0.15.
In the case of `O=C(NCc1cc2n(n1)CCCN(Cc1ccc(Cl)cc1F)C2)C1CCC1`, the “% Inhibition” value amounted to 1% and the Z score is recorded as -0.13.
The corresponding values for `CCc1ccc(OCC(=O)OCCN2CCCC2=O)cc1` are 3% and -0.49.
Regarding `O=C(CN1CCCC1=O)N1CCN(Cc2ccccc2)CC1`, the “% Inhibition” value is reported as -6% and the Z score was determined as 1.03.
As to `CC(C)=CCN1CCN(C[C@H](C)O)CC1`, the “% Inhibition” value is on record as -14% and the Z score is reported as 1.23.
The corresponding values for `O=C1N[C@@H](C2CC2)C(=O)N[C@H]1CC1CCCCC1` are 6% and -1.09.
